Where “and” joins values, the source holds several entries; their conditions need not be identical. Equal entries are not always repeated. The campaign covered roughly 48,000 compounds. About 1,200 (2.5%) were called active. Inconclusive results (about 2%) are left out.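 How the source made its calls: active means activation of at least 60% and not above a set upper limit (about 1 call in 100 departs from these limits); inconclusive means activation of 40% to 60%, or above that upper limit; inactive means activation under 40%.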 Some of the results follow.
molecular target: Probable G-protein coupled receptor 32 (Homo sapiens) (UniProt O75388); test: qHTS for Agonists of Human Resolvin D1 Receptor DRV1; conditions: CHO-K1 GPR32 beta-arrestin PathHunter luminescence, 90 min; at 76.9 µM; stronger effect = higher value; zero percent set by DMSO-only wells; further: 0% is about no effect
Outline: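 Beta-arrestin recruitment read-out: luminescence from complemented beta-Gal in CHO-K1 GPR32 PathHunter cells, measured 1 h after detection reagent at ambient temperature following 90 min compound exposure at 37 °C; DMSO served as basal (EC0) control.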

Sequence of UniProt O75388 (O75388 whole entry, looked up): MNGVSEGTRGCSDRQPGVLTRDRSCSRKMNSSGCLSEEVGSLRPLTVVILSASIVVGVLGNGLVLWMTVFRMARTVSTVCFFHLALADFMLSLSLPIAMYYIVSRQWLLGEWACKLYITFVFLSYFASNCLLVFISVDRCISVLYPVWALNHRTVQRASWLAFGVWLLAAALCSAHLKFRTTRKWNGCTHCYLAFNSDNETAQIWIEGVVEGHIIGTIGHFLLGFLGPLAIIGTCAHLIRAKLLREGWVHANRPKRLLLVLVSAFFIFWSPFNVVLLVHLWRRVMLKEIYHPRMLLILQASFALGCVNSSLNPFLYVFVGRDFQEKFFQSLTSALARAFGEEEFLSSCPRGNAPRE

activation, inactive:
CCc1cccc(NC(=O)C2CCCN2S(=O)(=O)c2ccc3c(c2)n(C)c(=O)c(=O)n3C)c1 (centres undefined) 1.59%, CC1CCN(C(=O)c2ccccc2NC(=O)c2nsc3ccccc23)CC1 -12.9%, COc1ccccc1N1CCN(C(=O)c2nc(-c3ccc(C)cc3)n3c2CCCCC3)CC1 1.35%, COc1ccc(CNC(=O)CCc2c(C)nn(-c3ccc(N4CCCC4)nn3)c2C)c(OC)c1 -8.82%, CCOc1ccc(-c2cc(NC(=O)c3c(F)cccc3F)c(C(=O)OC)s2)cc1 2.19%, COc1ccc(-n2c(SCC(=O)Nc3cc(C)cc(C)c3)nc3c(oc4ccccc43)c2=O)cc1 -35.4%, COC(=O)c1c(NC(=O)C(C)Oc2ccc(Cl)cc2Cl)sc2c1CCCC2 (centres undefined) -6.79%, Cc1ccc(Cl)cc1NC(=O)c1cnn2c(C(F)F)cc(-c3ccccc3)nc12 5.52%, COc1ccc(NC(=O)c2cc(S(=O)(=O)N3CCCCC3)c[nH]2)cc1Cl 24.7%, Cc1cc(NC(=O)CC(C)C)cc(-c2nc3ncccc3o2)c1O -7.36%, CC(C)[N+](C)(CCOC(=O)C1c2ccccc2Oc2ccccc21)C(C)C -0.105% and -5.69%, Cc1cc(C)c(/C=C/c2onc(C)c2S(=O)(=O)N2CCC(C(=O)NCC(C)c3ccccc3)CC2)c(C)c1 (centres undefined) -12.1%, COc1cccc(C(=O)N2CC(=O)Nc3ccc(C)cc3C2c2ccc(F)cc2)c1OC (centres undefined) -10.1%, Cc1ccc(Nc2cc(=O)[nH]c(=O)[nH]2)cc1C -25.6%, COc1ccc(NC(=O)CC2C(=O)N(c3ccc(OC)cc3)C(=O)N2C2CCCCC2)cc1 (centres undefined) -4.44%, Cc1c(Cl)cccc1-n1c(SCC(=O)NCc2ccccc2)nc2n[nH]c(C)c2c1=N -6.98%, Cc1ccc(C(=O)N2c3ncnn3C3(CCCCC3)[C@@H]3CCCC[C@@H]32)cc1 -11.1%, COc1ccc(Cl)cc1NC(=O)CSc1nnc(C)n2c1cc1sccc12 0.483%, CCCOc1ccc(CNC(=O)C(C)n2nc(C)n3c(cc4occc43)c2=O)cc1 (centres undefined) -19.7%, Cc1ccc2oc(=O)c(-c3nc4ccc(C)cc4[nH]3)cc2c1 -1.21%, COc1ccc(OC)c(CNC(=O)CCc2c(C)nc3c(c2C)c(=O)n(C)c(=O)n3C)c1 -4.31%, CCC1CCCCN1S(=O)(=O)c1ccc(NC(=O)c2nc(SC)ncc2Cl)cc1 (centres undefined) -12.5%, Cc1oc2ncnc(N3CCCCC3)c2c1C(=O)Nc1cccc(Cl)c1C -29.8%, CCc1ccccc1NS(=O)(=O)c1ccc(-c2coc(C)n2)cc1 47%, Cc1nc2cc(-c3ccccc3)nn2c(C)c1CCC(=O)NCCc1ccccc1 37.4%, Cn1c2c(c(=O)n(C)c1=O)C(c1cc(Br)ccc1F)CC(=O)N2 (centres undefined) 0.371%, COc1ccc(Nc2cc(C(=O)NCCCN(C)c3ccccc3)c3ccccc3n2)c(OC)c1 -6.79%, CCCOCc1cc(CN2CCN(c3cccc(Cl)c3)CC2)c(O)c2ncccc12 -7.34%, Cc1cccc(C)c1NC(=O)c1c(C)oc2c1C1=NCCN1C=N2 20.4%, COc1ccc(CC(=O)Nc2ccc(-c3nc4ccccc4s3)cc2Cl)cc1OC 9.22%, Cc1ccc2[nH]c(CSc3nnc(NC(=O)COc4ccccc4C)s3)cc(=O)c2c1 7.98%, COC(=O)c1ccc(NC(=O)c2cc(S(=O)(=O)N3CCC(C)CC3)cn2C)cc1 -0.113%, CCOC(=O)c1ccc(Nc2nc(N)c3cc(OC)c(OC)cc3n2)cc1 4.48%, Cc1cccc(CCNC(=O)c2ccc3c(c2)nc2n3CCOC2)c1 -10.5%, CCCOc1ccc(NC(=O)CC2C(=O)N(c3ccc(C)cc3)C(=O)N2Cc2cccc(OC)c2)cc1 (centres undefined) -11.9%, COc1ccc(NC(=O)CN2C(=O)c3ccccc3Sc3ccc(C(=O)N4CCOCC4)cc32)c(OC)c1 -14.3%, O=c1c2cc3c(nc2ncn1Cc1ccc(Cl)cc1)CCCC3 -5.88%, CCOC(=O)C1CCN(c2c(C(=O)c3ccc(C)cc3)cnc3ccc(F)cc23)CC1 5.24%, CCOc1ccccc1NC(=O)CN1CCCN(Cc2cccc(Cl)c2)S1(=O)=O -15.4%, COc1cc(NC(=O)c2cccc(F)c2)ccc1NC(=O)c1cc2ccccc2o1 -3.17%, COc1cc(C(=O)OCc2cc(=O)n3nc(C(C)C)sc3n2)cc(OC)c1OC 12.2%, CCc1ccc(NC(=O)c2nnn(Cc3cccc(C(F)(F)F)c3)c2N)cc1 23.8%, COc1cccc(CNC(=O)c2ccc3c(c2)nc2n3CCCCC2)c1OC -18.2%, COc1cccc(CNC(=O)COCc2cc(-c3ccc4c(c3)OCO4)on2)c1 -11.9%, CC1CCC2(CC1)N=C(c1ccccc1)C(=O)N2CC(=O)Nc1ccc(F)c(Cl)c1 (centres undefined) -43.3%, Cc1nc2ncnn2c(C)c1CCC(=O)N1CCN(c2cccc(Cl)c2)CC1 22.3%, CCOC(=O)c1cccc(NS(=O)(=O)c2cc3[nH]c(=O)c(=O)[nH]c3cc2C)c1 20%, Cc1cccc(-n2c(C)nc3cc(C(=O)NC4CCCCCC4)ccc32)c1 -4.98%, CCc1ccc(NC(=O)C2=CC(c3ccc4c(c3)OCO4)=NS(=O)(=O)N2C)cc1 -31%, COc1ccc(NC(=O)Nc2c[nH]c(=O)[nH]c2=O)c(OC)c1 -1.03%, CCOc1ccc(-c2nc(SCC(=O)NCCCOC)c(-c3ccccc3)[nH]2)cc1 -32.7%, CCn1c(CN2CCOCC2)nc2cc(NC(=O)c3ccc([N+](=O)[O-])cc3)ccc21 4.09%, COc1ccccc1CNC(=O)CSc1ncc2c(n1)-c1cc(Cl)ccc1N(Cc1ccccc1)S2(=O)=O 8.23%, Cc1c(C(=O)N(Cc2ccc(Cl)cc2)CC2CCCO2)oc2ccc(F)cc12 (centres undefined) -26.9%, CSc1ccc(CC2C(=O)Nc3ccccc32)cc1 (centres undefined) -19.8%, COc1ccccc1Oc1c(NS(=O)(=O)c2ccc(C(C)(C)C)cc2)nc(-c2ncccn2)nc1OCCO -9.46%, O=C(Cc1ccccc1F)N1CCC(c2nc3c(nnn3Cc3ccc(F)cc3)c(=O)[nH]2)CC1 -0.455%, O=C(CS(=O)(=O)c1cccc2nsnc12)Nc1cc(F)ccc1F 11.4%, CCCCSCCCNC(=O)c1cn(C)c2ccc(S(=O)(=O)N3CCCC3)cc2c1=O 7.67%, Cc1cc(C)cc(OCC(=O)N(Cc2ccc(Cl)cc2)CC2CCCO2)c1 (centres undefined) -21.9%, CCOC(=O)c1c(S(=O)(=O)N2CCC(C(=O)NCc3ccccc3OC)CC2)c(C)n(C)c1C -8.65%, Cc1ccc(CNC(=O)CCCCn2c(=O)c3ccccc3n(Cc3ccc(C)cc3)c2=O)cc1 -5.07%, O=C(NC1CCCC1)c1ccc2c(=O)n(Cc3ccccc3)c(SCc3ccccc3)nc2c1 -9.01%, Cc1ccc(-n2nc(C(=O)Nc3ccc(C)c(F)c3)c(=O)n(C)c2=O)cc1 -10.6%, COc1ccc(-c2nc3ccc(C)cn3c2Nc2ccc3c(c2)OCO3)cc1 -10.3%, COc1cc(C(=O)N2CCN(c3ccc(Nc4ccccc4)nn3)CC2)cc(OC)c1OC -17%, Cc1ccc(-n2nnnc2CNC(=O)c2ccccc2)cc1C -12.7%, COc1ccc(N2CCN(CCCNC(=O)c3cc(Nc4ccccc4OC)nc4ccccc34)CC2)cc1 28.1%, Cc1ccc(Nc2nc(Nc3ccc(C)c(C)c3)nc(N3CCOCC3)n2)cc1C -23.5%, CCc1cccc(C)c1NC(=O)C1CCN(S(=O)(=O)Cc2ccccc2)CC1 9.12%, CC1CCCCN1S(=O)(=O)c1cc2c3c(c1)CC(=O)N3CCC2 (centres undefined) -30.6%, COc1ccc(N2CC(NC(=O)COc3ccc4ccccc4c3)CC2=O)cc1 (centres undefined) 1.38%, O=C(Cn1c(-c2cccs2)cc2ccccc21)NCc1ccccc1Br 2.53%, O=C(Cn1c(=O)n(Cc2ccc(C(=O)NCc3ccccc3Cl)cc2)c(=O)c2ccccc21)Nc1ccc(F)c(Cl)c1 -5.59%, COc1cc(C(=S)N2CCOCC2)cc(OC)c1OC -0.884%, CC(C)Cc1ccc(CC(=O)O)cc1 -4.82%, Cc1cccc(CNC(=O)CN2C(=O)CCCc3ccccc32)c1 -9.03%, Cc1ccc(-c2nc(CS(=O)(=O)CC(=O)NCc3ccccc3Cl)c(C)o2)cc1 0.396%, COc1cccc(C(=O)Nc2ccccc2-c2nc3ccccc3s2)c1 -9.02%, CN(C)S(=O)(=O)c1ccc2c(c1)N(CC(=O)N1CCN(c3ccccc3F)CC1)CCS2 -7.06%, CCc1cccc(C)c1NC(=O)CN1C(=O)C2(SCC(=O)N2c2cc(C)cc(C)c2)c2ccccc21 (centres undefined) -7.5%, CC1=C(C(=O)Nc2cccc(C(F)(F)F)c2)C2(CCCCC2)OC1=O -33%, Cc1oc(-c2cccc(Cl)c2)nc1CN1CCCC(C(=O)NCc2ccc(Cl)cc2)C1 (centres undefined) 11%, NC(N)=NCCC[C@H](N)C(=O)O 0.264% and 10.9%
